# Reference: PMC4336329 (PLoS ONE, 2015)
# Out of some 310,000 compounds screened, about 2,200 (0.71%) showed an effect of 50% or more. The effect is printed as a negative number. This is one part of the list.
# Molecular target: human ether-à-go-go-related gene (hERG) potassium channel (human, UniProt Q12809)
# Assay: primary screen, population patch clamp on CHO cells stably expressing hERG
# Chain of human ether-à-go-go-related gene (hERG) potassium channel (Q12809 whole entry, looked up): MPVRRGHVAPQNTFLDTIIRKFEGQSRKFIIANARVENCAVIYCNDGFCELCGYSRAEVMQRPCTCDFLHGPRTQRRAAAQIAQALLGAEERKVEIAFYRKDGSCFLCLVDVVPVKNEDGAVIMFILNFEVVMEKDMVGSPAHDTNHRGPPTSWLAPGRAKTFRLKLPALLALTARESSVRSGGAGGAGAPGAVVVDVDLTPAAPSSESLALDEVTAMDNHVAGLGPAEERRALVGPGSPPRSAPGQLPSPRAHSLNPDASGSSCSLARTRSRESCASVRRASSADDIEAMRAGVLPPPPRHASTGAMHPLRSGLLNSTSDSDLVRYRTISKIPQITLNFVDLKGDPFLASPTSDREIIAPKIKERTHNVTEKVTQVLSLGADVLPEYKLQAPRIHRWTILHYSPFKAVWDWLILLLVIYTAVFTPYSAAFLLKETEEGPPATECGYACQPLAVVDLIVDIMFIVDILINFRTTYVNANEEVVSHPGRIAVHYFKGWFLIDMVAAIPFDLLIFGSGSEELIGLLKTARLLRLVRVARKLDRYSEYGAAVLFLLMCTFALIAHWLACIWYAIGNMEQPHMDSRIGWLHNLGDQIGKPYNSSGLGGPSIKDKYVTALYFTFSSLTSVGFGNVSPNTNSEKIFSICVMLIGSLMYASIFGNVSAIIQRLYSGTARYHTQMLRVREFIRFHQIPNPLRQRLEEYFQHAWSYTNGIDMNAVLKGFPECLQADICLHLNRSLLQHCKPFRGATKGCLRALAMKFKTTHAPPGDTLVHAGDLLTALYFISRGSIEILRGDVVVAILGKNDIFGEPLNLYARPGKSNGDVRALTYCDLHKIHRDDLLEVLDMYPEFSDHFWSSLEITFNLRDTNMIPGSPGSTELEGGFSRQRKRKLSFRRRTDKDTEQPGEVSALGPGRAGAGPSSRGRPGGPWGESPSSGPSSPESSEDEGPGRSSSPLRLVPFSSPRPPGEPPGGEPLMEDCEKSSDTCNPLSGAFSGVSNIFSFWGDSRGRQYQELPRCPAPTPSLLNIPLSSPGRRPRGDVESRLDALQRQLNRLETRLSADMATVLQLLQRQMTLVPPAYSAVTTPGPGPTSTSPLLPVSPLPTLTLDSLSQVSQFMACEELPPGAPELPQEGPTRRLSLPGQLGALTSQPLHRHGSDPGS
row,Structure (SMILES),"hERG current change (%, negative = inhibition) at 1uM"
1,C=CCNC(=S)N1CCN(c2ncc3c(=O)c(C(=O)O)cn(CC)c3n2)CC1,1.54%
2,Cc1ccc(-n2c(C)nn(-c3ncc(C(F)(F)F)cc3Cl)c2=O)cc1,9.4%
3,Cl.c1ccc(NCc2cccc3ccccc23)nc1,12.3%
4,Clc1ccc(-c2csc(-c3cccnc3)n2)s1,13.6%
5,C=C(C)[C@@H](O)COc1c2ccoc2cc2oc(=O)ccc12,17.3%
6,COC(=O)c1sc(NC(=O)c2ccco2)c(C#N)c1C,2.76%
7,Cc1ccc(C)c2[nH]c(=O)c(CN(Cc3ccco3)C(=O)Nc3ccccc3)cc12,9.87%
8,Cc1ccc([C@@H]2[C@@H]3C(=O)N(C)C(=O)[C@@H]3[C@]3(C)C(=O)N(CC4CC4)CC(=O)N23)o1,8.81%
9,O=C(c1ccco1)N1CCN(S(=O)(=O)c2ccccc2[N+](=O)[O-])CC1,12.5%
10,O=c1c2ccccc2nnn1Cc1ccccn1,17%
11,Cc1ccc2[nH]c(=O)c(CN(CCCO)S(=O)(=O)c3c(C)ccc4nsnc34)cc2c1,2.9%
12,Clc1ccc(Cc2noc(CN3CCN(c4ccccc4)CC3)n2)c(Cl)c1,3.7%
13,O=C(CSCc1c(Cl)cccc1Cl)NCc1ccccn1,13.3%
14,CCN(Cc1ccccc1)C(=O)c1cccc(S(=O)(=O)N2CCN(c3ccc(F)cc3)CC2)c1,2.69%
15,OCC1OC(n2nnc3ccccc32)C(O)C(O)C1O (centres unmarked),16.2%
16,CC(=O)c1cccc(NC(=O)CN(C2CCCCC2)S(C)(=O)=O)c1,11.8%
17,O=C(/C=C/c1ccc[nH]1)c1ccccc1,15.3%
18,CSc1nnc2c3ccccc3n(CCc3ccccc3)c2n1,-11.2%
19,CCc1ccc(NC(=S)N(Cc2cccc(Br)c2)CC2CCC(C(=O)O)CC2)cc1 (centres unmarked),18.8%
20,COc1cccc(CN2CC(C(=O)NCCc3ccc(C)s3)CCC2=O)c1 (centres unmarked),3.04%
21,O=C(NC1=NCCS1)C1COc2ccccc2O1 (centres unmarked),5.11%
22,Cn1nc(C(=O)NC2CCCN(Cc3ccccc3F)C2)c2ccccc2c1=O (centres unmarked),-13.2%

row,Structure (SMILES),"hERG current change (%, negative = inhibition) at 1uM"
1,CCc1cccc(NC(=O)CN2C(=O)NC3(CCCCCCC3)C2=O)c1,-1.18%
2,CC(=O)O[C@H]1[C@H](C)OC=C[C@@H]1OC(C)=O,12.7%
3,CC(OC(=O)c1ccccc1C(=O)N(C)C1CCCCC1)C(=O)NC1(C#N)CCCCC1 (centres unmarked),-2.84%
4,COc1ccc(CC(C)NCCC(c2ccccc2)c2ccccc2)cc1 (centres unmarked),-16.7%
5,O=C1C2C3C=CC(C2C(=O)N1C1CCCCC1)C1C(=O)N(C2CCCCC2)C(=O)C31 (centres unmarked),11%
6,CNS(=O)(=O)c1ccc(N=Cc2c(O)n(-c3cccc(C)c3)c(=O)[nH]c2=O)cc1,11.5%
7,CCOC(=O)c1ccc(NC(=O)N2CCN(c3ccccn3)CC2)cc1,-9.14%
8,O=C(CN1CCOCC1)Nc1ccc([N+](=O)[O-])cc1,9.44%
9,NC(=O)CSc1nccn1Cc1ccccc1,5.35%
10,COC(=O)c1cc(NC2c3ncccc3C(=O)N2Cc2ccccc2)cc(C(=O)OC)c1 (centres unmarked),-1.73%
11,NC(=O)COC(=O)CN1C(=O)C2CCCCC2C1=O (centres unmarked),13.8%
12,COc1ccc(CN2CC3CC(C2)c2cccc(=O)n2C3)cc1OC (centres unmarked),3.62%
13,COc1ccc(S(=O)(=O)N(C)CC(=O)N2CCN(Cc3ccccc3)CC2)cc1C,-13.9%
14,COc1cccc(NC(=O)c2ccnc(N3CCC(C(=O)NCc4cc(OC)ccc4OC)CC3)c2)c1,18.2%
15,Cn1c(=O)c2c(nc(SCc3nc(N)nc(N4CCCCC4)n3)n2C)n(C)c1=O,8.75%
16,Fc1ccccc1N1CCN(CC2CC3C=CC2C3)CC1 (centres unmarked),12.5%
17,Cc1cccc(Nc2nnc(SCC(=O)NCc3cccs3)s2)c1,23%
18,CNC(=O)CN(c1ccc(C(C)C)cc1)S(C)(=O)=O,9.52%
19,CNS(=O)(=O)c1cccc(C(=O)OCC(=O)Nc2sc3c(c2C#N)CCCCC3)c1,8.36%
20,Cc1ccc(-n2ncc3c(NNC(=O)c4ccco4)ncnc32)cc1C,5.2%
21,O=[N+]([O-])c1ccc(Cl)c(NC(=S)N2CCCC2)c1,14.3%
22,CCOC(=O)C1CCCN(S(=O)(=O)c2c(C)[nH]c(C)c2C(=O)N2CCCC2)C1 (centres unmarked),13.6%

row,Structure (SMILES),"hERG current change (%, negative = inhibition) at 1uM"
1,O=C(N[C@@H](Cc1ccccc1)C(=O)N1CCC2(CC1)NCCc1[nH]cnc12)c1cccc(Br)c1,17%
2,CN(C)S(=O)(=O)c1cccc(-c2nn(-c3ccccc3)cc2/C=C(\C#N)c2nc3ccccc3[nH]2)c1,13.4%
3,O=C([O-])CCC/C=C\C[C@@H]1[C@@H](/C=C/[C@@H](O)COc2cccc(Cl)c2)[C@H](O)C[C@@H]1O.[Na+],10.2%
4,CC(C)CCNC(=O)C1CCN(c2nnc(-n3cccc3)s2)CC1,7.93%
5,COC(=O)C1=C(c2ccc(-c3ccccc3)c(F)c2)C[C@@H]2CC[C@H]1N2C(=O)NCCO,14%
6,CCOC(=O)N1CCC(NC(=O)c2ccc3c(c2)N=C(C)c2c(C)ccc(C)c2S3)CC1,21%
7,Cc1ccc(CNC(=O)CN2c3cccc4cccc(c34)S2(=O)=O)cc1,9.8%
8,O=C(COc1ccc(Cl)cc1)NCCCNC(=O)c1ccncc1,-5.27%
9,Cc1noc(C)c1C(=O)N1CCC(Cc2ccccc2)CC1,8.93%
10,O=C(C1=C[C@H](C2CCCCC2)C[C@H](OCc2ccc(CO)cc2)O1)N1CCN(Cc2ccccc2)CC1,5.06%
11,CCN(CC)S(=O)(=O)c1ccc2c(c1)c(=O)c(C(=O)NCc1ccco1)cn2C,12.4%
12,Cc1nc2ccccc2c2oc(C(=O)NCCCN3CCCC3=O)cc12,5.57%
13,O=C(O)c1ccc(NS(=O)(=O)c2ccc(Cl)c(C(=O)Nc3ccccc3[N+](=O)[O-])c2)cc1,12.1%
14,Cc1ccc(S(=O)(=O)NCCC(=O)N2CCC(C)CC2)cc1,3.1%
15,O=C1C(=O)N(CCCN2CCOCC2)C(c2ccc(Cl)cc2)/C1=C(/O)c1ccc(F)cc1 (centres unmarked),16.8%
16,CCOc1ccc(NC(=O)CCS(=O)(=O)c2ccc(Br)cc2)cc1,3.24%
17,CC(C)c1ccccc1OCCNC(=O)c1cccnc1,10.5%
18,COc1ccccc1NC(=O)CCCN1C(=O)C2CC=CCC2C1=O (centres unmarked),13.5%
19,O=C(O)c1cccc(S(=O)(=O)N2CCC(n3nnc4cc(C(F)(F)F)ccc43)CC2)c1,16.9%
20,CCOC(=O)c1c(C)n(C(C)C)c2ccc(OC(=O)c3ccc(N4C(=O)CCC4=O)cc3)cc12,10.5%
21,O=C(OCC#CCSc1nc2ccccc2o1)c1cc2ccccc2o1,15.7%
22,COc1ccc(-c2noc(COc3ccc4c(c3)OCO4)n2)cc1,13.8%

row,Structure (SMILES),"hERG current change (%, negative = inhibition) at 1uM"
1,CC1CCN(CCCCOc2cccc(C(C)C)c2)CC1.O=C(O)C(=O)O,-10%
2,COc1ccc2cc(C(=O)NCc3ccccc3CN3CCCC3)ccc2c1,-22.2%
3,COc1ccc(C)cc1-n1c(SCC(=O)Nc2cccc(C(=O)O)c2)nc2ccccc2c1=O,16.5%
4,CNC(=O)c1ccc(NC(=O)c2cccc(C(F)(F)F)c2)cc1,9.77%
5,CCSc1nc(N)c(C#N)c(-c2ccco2)c1C#N,4.1%
6,COc1cccc(OC)c1C(=O)NNS(=O)(=O)c1ccc2ccccc2c1,13.2%
7,COc1ccccc1-c1ccc(SCC(=O)NC2CCCC2)nn1,-1.49%
8,Cc1cc(C)n(CC(O)COc2c(C)cccc2C)n1 (centres unmarked),4.69%
9,COc1ccc(CCNC(=O)COc2ccc3c(c2)OCO3)cc1,8.08%
10,Cc1cc2cc(C)c(NCCNC(=O)c3cccs3)nc2cc1C,6.25%
11,CC(C)CNC(=O)c1cc(S(=O)(=O)N2CCOCC2)ccc1N1CCCC1,2.58%
12,CN1CCN(S(=O)(=O)c2cc([N+](=O)[O-])ccc2N/N=C/c2ccc(Cl)cc2)CC1,-2.5%
13,Cc1noc2ncnc(Sc3ccccc3Cl)c12,11.7%
14,CCCn1c(N)c(C(=O)CN(C)CC(=O)Nc2ccc(F)cc2)c(=O)[nH]c1=O,-20%
15,CCSc1nnc(Cn2c(=O)sc3ccccc32)n1-c1ccccc1C,4.66%
16,COCCCNC(=O)CCSc1ccc(C)cc1,4.88%
17,CC1(NC(=O)Nc2cc([N+](=O)[O-])ccc2O)CCS(=O)(=O)C1 (centres unmarked),11.5%
18,COc1cc(C(=O)Nc2scc(-c3ccccc3)c2C(=O)O)cc(OC)c1OC,14.8%
19,CC1C(=O)N2CCCc3cc(NC(=O)C(=O)NCCc4c[nH]c5ccccc45)cc1c32 (centres unmarked),6.51%
20,COc1ccc(-c2cc(C(=O)Oc3ccc([N+](=O)[O-])cc3)c3ccccc3n2)cc1,8.08%
